# The full ranking holds about 33,000 sequences; the median of “E-score (-0.5 to 0.5)” is about -0.016, and the highest 2% start at about 0.31. Some of the results follow.
# Biological target: Cst6 (UniProt P40535)
# Test: PBM E-score (8-mer binding enrichment) (E-score (-0.5 to 0.5)); higher = stronger / more preferred TF binding; most listed sequences are background and not binding sites
# Conditions: protein concentration: 200 nM; construct: GST-DNA-binding domain
# In short: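 GST-tagged yeast TFs (full-length or DNA-binding domain) were made by PURExpress in vitro transcription/translation and applied at about 100-200 nM to universal all-10-mer Agilent arrays. The arrays were made double-stranded by primer extension, on fresh or once-stripped slides. Bound protein was detected with fluorescent anti-GST, and scans were normalised with masliner. Each ungapped eight-base word, pooled with its reverse complement, received an E-score (modified Wilcoxon-Mann-Whitney statistic) from the Universal PBM Analysis Suite.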
row,Sequence,PBM E-score
1,GCGTGGAA,-0.079
2,GTACAAAC,0.0687
3,GGCATGTA,0.0329
4,TATGGTAA,0.176
5,ATAATTAG,0.223
6,ACCATGTG,0.0156
7,TCCCATCA,-0.107
8,AAAGCGTC,-0.0266
9,AACCCATA,0.0867
10,GCTCCACC,-0.404
11,ACCCCTCG,-0.243
12,AGCTCAAC,-0.142
13,AGTGACTG,-0.0113
14,ACCGTCGG,-0.194
15,ATCGCCGG,-0.0344
16,GTTTTTAA,0.238
17,ACATGATG,0.118
18,AATTACGG,0.183
19,ATAGAATC,0.139
20,AACTCGGT,-0.0595
21,AATGAAAT,0.37
22,TCTCTGAA,-0.144
23,GCTCTACC,-0.264
24,AAAAAGAA,0.143
25,AGTATCCC,-0.127

row,Sequence,PBM E-score
1,AACATTGT,0.0101
2,AGCGGCCA,-0.257
3,CGATCCCC,-0.302
4,AAAATAGA,0.141
5,ATTCAGTC,0.079
6,AAATCACA,0.00167
7,GATGCTAC,-0.0756
8,CCCGTGCC,-0.12
9,ACGAGAGA,-0.0689
10,ATGATGGC,0.0352
11,AGCTACAA,-0.0193
12,AAAATCTA,0.169
13,AAACTCTA,-0.0037
14,CAGGTTAA,-0.0628
15,CTATGAGA,-0.12
16,AGTGCTGC,0.0129
17,CAGTTATC,-0.0622
18,TATTACCA,0.127
19,CTCCTAGC,-0.216
20,ACGAATAG,-0.0583
21,CCAGTAGG,-0.248
22,ACTCTCCG,-0.0603
23,TCCCGCAA,-0.0348
24,CGTGACGA,0.386
25,ACACTACA,0.168

row,Sequence,PBM E-score
1,ACGGAGGC,-0.129
2,GGAGTTGA,-0.0935
3,GATCACGC,0.263
4,CGAGTCGC,-0.268
5,AAGCGCAT,-0.132
6,ACCAATTA,0.182
7,GACAACAC,0.114
8,TATAGTAA,0.161
9,CCCCCCTC,-0.431
10,TAGTACGA,0.0609
11,TCAGGACA,0.0644
12,CGCGTCTC,-0.0186
13,CATCGCAC,-0.0215
14,GACCGTTA,-0.109
15,GCGGTAGA,-0.173
16,TATACAGA,0.176
17,CGCATACA,0.129
18,ACTCTTAT,0.0844
19,GGCGTTCA,-0.0971
20,ACCTAAAA,0.133
21,ACCCACTG,-0.0695
22,CAGTACCC,-0.136
23,CAAGACGG,-0.0797
24,ACCGAATA,0.0754
25,GTCCCGGA,-0.179

row,Sequence,PBM E-score
1,ACCATCGT,-0.0803
2,CAGATGGG,-0.141
3,CACCATGC,-0.133
4,AGCACAAA,0.174
5,GAGTTTTA,0.122
6,CCTAGTAG,-0.248
7,ATTGATAA,0.179
8,CCCGACGA,-0.173
9,CCTGGTAA,-0.0632
10,CGGCGTTC,0.115
11,GCGGAATA,0.0593
12,GCATGAAC,0.101
13,AGGGGAGA,-0.369
14,AGTGTACA,-0.0207
15,TTTTAAAA,0.187
16,CGCAGTCC,-0.15
17,GAGGCTTA,-0.0817
18,CTTCCAAC,-0.0988
19,GTGGCTTA,-0.00805
20,CGGTAGGC,-0.137
21,CGTAGCAA,0.0803
22,GAGCTTTA,-0.0811
23,GCGGGACC,-0.345
24,TAGACGGA,-0.00256
25,AAGCTGCT,-0.0988

row,Sequence,PBM E-score
1,ACACGTAG,0.0917
2,CCTCGAGA,-6e-05
3,ACCTCACT,0.164
4,ACACATAA,0.237
5,CCCCTTAA,-0.212
6,TCTCGGCA,-0.0951
7,AACGGGAG,-0.0754
8,TCACGCGA,0.0214
9,GCACGCAC,-0.159
10,CTACTGGA,-0.194
11,TCCGTGAA,-0.0755
12,ACGATCGC,0.0847
13,AGCGAACA,0.0447
14,AGGGACAA,-0.0311
15,GTAAAGGA,0.0655
16,CACTTGAG,-0.0276
17,ACCCCCTA,-0.406
18,AGATATCC,0.045
19,AAATGATT,0.294
20,ATGTCAGA,0.221
21,AGGTCTCG,-0.221
22,GTTTCGAA,0.0856
23,AGCCCCCA,-0.351
24,TCCTTGCA,-0.206
25,GTACGAAC,0.216

row,Sequence,PBM E-score
1,GCAGAACA,0.0461
2,GACCAGAA,-0.119
3,ACCAACCG,-0.0437
4,GCGAGGCC,-0.153
5,GCCGGGCC,-0.287
6,ACGAATAA,0.18
7,GGGCCTTA,-0.208
8,ATAACGTA,0.398
9,ATGCTGTG,0.0518
10,CACGAACA,0.182
11,ATGTTTGA,-0.00837
12,TCCTGGCA,-0.183
13,CGCCGGGA,-0.22
14,GCGCTCCC,-0.226
15,CATGTATA,0.0241
16,GCGAATCA,0.139
17,GCTTAGAC,-0.195
18,ATGAGTGG,-0.0978
19,CCAAGGCC,-0.19
20,ACGCGCAT,0.0851
21,CAATAAAG,0.243
22,CCCCTGGA,-0.273
23,TAAGAGCA,-0.032
24,CCGAGGAG,-0.221
25,CGGAGTAG,-0.177

row,Sequence,PBM E-score
1,AGATAGCT,-0.195
2,GACAATTA,0.157
3,ACGAGGCG,0.237
4,ATACTCGG,0.0698
5,AAGAATAC,0.205
6,AGTGTTTC,0.0641
7,TGCTCACA,0.0805
8,AGTTGAAC,-0.0385
9,TGGATGAA,0.0443
10,ACTTACGC,0.214
11,CGCCCCCG,-0.294
12,GACTCTGA,-0.112
13,GTCGGGGA,-0.148
14,AAGGCCCC,-0.217
15,GCAGGCGC,-0.0994
16,ATTCGAAC,0.0877
17,GCGCACGC,-0.136
18,AGGGAGCC,-0.326
19,ACAATCAC,0.122
20,CTGGCTAA,-0.16
21,CAATGGTA,0.0178
22,ACTGTGTC,-0.079

# From the supplement of paper PMC3334620
